Measurements taken from the supplement of paper PMC4967469.
By IC50 is meant the dose at which the fit gives 50% viability; a fit beyond the top or the lowest dose is shown as a bound at that dose. AUC is the area under the same curve over the 256-fold range up to the top dose, as a fraction; the more sensitive the line, the further below 1. For some assays here: Any top dose called inferred comes from the curve model; the source does not state it.

How the values were obtained:
Assay in all cases: Viability of human cancer cell lines after 72 h of drug (GDSC screen)
[1] = compound: Cc1cnc(Nc2ccc(OCCN3CCCC3)cc2)nc1Nc1cccc(S(=O)(=O)NC(C)(C)C)c1 [TG101348]; conditions: top dose 10.24 µM
Description: (§1)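 Human cancer cell lines in 384-well plates, medium with 10% serum, drug for 72 h over a 256-fold dose range (nine 2-fold or five 4-fold steps up to the top dose). Adherent lines were fixed and stained with the nucleic acid dye Syto60, suspension lines read with resazurin; signal relative to control wells, capped at 0 and 100%. One two-parameter sigmoid per drug and line, fitted in a mixed model over all curves with the slope shared within a line.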

[2] = compound: COC(=O)CNC(=O)C(=O)OC [Dimethyloxalylglycine]; conditions: top dose 4000 µM; top dose inferred
Description: as §1

[3] = compound: COc1cccc2cc(-c3nc([C@H]4CC[C@H](C(=O)O)CC4)n4ncnc(N)c34)[nH]c12 [OSI-027]; conditions: top dose 20 µM
Description: as §1

[4] = compound: O=C(c1ccc(C(=O)N2CCC(N3CCCC3)CC2)c(Nc2ccccc2)c1)N1CCC(N2CCCC2)CC1 [UNC1215]; conditions: top dose 1 µM; top dose inferred
Description: as §1

[5] = compound: C=CCNC1=C2C[C@@H](C)C[C@H](OC)[C@H](O)[C@@H](C)/C=C(\C)[C@H](OC(N)=O)[C@@H](OC)/C=C\C=C(/C)C(=O)NC(=CC1=O)C2=O [17-AAG]; conditions: top dose 1 µM
Description: as §1

[6] = compound: Cc1cnc(Nc2ccc(F)cc2Cl)nc1-c1c[nH]c(C(=O)N[C@H](CO)c2cccc(Cl)c2)c1 [VX-11e]; conditions: top dose 5.12 µM; top dose inferred
Description: as §1

[7] = compound: CS(=O)(=O)c1ccc(C(=O)Nc2ccc(Cl)c(-c3ccccn3)c2)c(Cl)c1 [Vismodegib]; conditions: top dose 10 µM; top dose inferred
Description: as §1

[8] = compound: CN(C)Cc1cccc(N=C(c2ccccc2)c2c(O)[nH]c3cc(C(=O)N(C)C)ccc23)c1 [BIX02189]; conditions: top dose 20 µM; top dose inferred
Description: as §1

[9] = compound: CCc1cc(-c2n[nH]c(C)c2-c2ccc3c(c2)OCCO3)c(O)cc1O [CCT018159]; conditions: top dose 10 µM; top dose inferred
Description: as §1

Cell Line | AUC [1] | IC50 [1] [µM] | AUC [2] | IC50 [2] [µM] | AUC [3] | IC50 [3] [µM] | AUC [4] | IC50 [4] [µM] | AUC [5] | IC50 [5] [µM] | AUC [6] | IC50 [6] [µM] | AUC [7] | IC50 [7] [µM] | AUC [8] | IC50 [8] [µM] | AUC [9] | IC50 [9] [µM]
SK-N-FI (neuroblastoma, adherent) | 0.933 | > 10.2 | 0.849 | 2970 | 0.798 | 9.41 | 0.988 | > 1 | 0.939 | > 1 | 0.958 | > 5.12 | 0.959 | > 10 | 0.986 | > 20 |  | 
CAPAN-1 (pancreas, adherent) | 0.87 | > 10.2 | 0.383 | 115 | 0.71 | 5.26 |  |  | 0.745 | 0.345 | 0.881 | > 5.12 | 0.986 | > 10 | 0.979 | > 20 | 0.977 | > 10
NB69 (neuroblastoma, adherent) | 0.794 | 4.14 | 0.445 | 181 | 0.351 | 0.511 |  |  | 0.759 | 0.314 | 0.848 | 3.18 | 0.989 | > 10 | 0.965 | > 20 | 0.931 | > 10
GA-10 (Burkitt lymphoma, suspension) |  |  | 0.194 | 37.7 |  |  | 0.986 | > 1 | 0.921 | > 1 |  |  | 0.979 | > 10 |  |  | 0.893 | 8.64
OACM5-1 (oesophagus, semi-adherent) | 0.665 | 1.96 |  |  | 0.203 | 0.145 | 0.976 | > 1 | 0.873 | > 1 | 0.895 | > 5.12 | 0.984 | > 10 | 0.779 | 9.23 | 0.986 | > 10
MDA-MB-453 (breast, adherent) | 0.889 | > 10.2 | 0.965 | > 4000 | 0.279 | 0.273 | 0.984 | > 1 | 0.732 | 0.313 | 0.975 | > 5.12 | 0.985 | > 10 | 0.959 | > 20 |  | 
SNU-61 (large intestine, adherent) | 0.816 | 8.12 |  |  | 0.862 | > 20 | 0.973 | > 1 | 0.875 | > 1 | 0.706 | 1.49 | 0.985 | > 10 | 0.959 | > 20 | 0.982 | > 10
KARPAS-1106P (B-cell lymphoma, suspension) |  |  |  |  |  |  | 0.992 | > 1 | 0.956 | > 1 |  |  | 0.973 | > 10 |  |  | 0.906 | 9.35
IGROV-1 (ovary, adherent) |  |  |  |  |  |  | 0.951 | > 1 | 0.639 | 0.182 |  |  | 0.97 | > 10 |  |  | 0.911 | > 10
NCI-H146 (small cell lung carcinoma, suspension) |  |  |  |  |  |  | 0.993 | > 1 | 0.992 | > 1 |  |  | 0.988 | > 10 |  |  | 0.975 | > 10
RH-18 (rhabdomyosarcoma, adherent) |  |  |  |  |  |  | 0.983 | > 1 | 0.821 | 0.69 |  |  | 0.98 | > 10 |  |  | 0.896 | > 10
KMS-11 (myeloma, suspension) | 0.837 | 5.49 |  |  | 0.747 | 5.59 | 0.982 | > 1 | 0.861 | 0.653 | 0.954 | > 5.12 | 0.988 | > 10 | 0.926 | > 20 | 0.952 | > 10
BT-549 (breast, adherent) |  |  |  |  |  |  | 0.975 | > 1 | 0.623 | 0.156 |  |  | 0.979 | > 10 |  |  | 0.884 | > 10
DU-145 (prostate, adherent) | 0.985 | > 10.2 | 0.644 | 660 | 0.81 | 12.1 | 0.981 | > 1 | 0.916 | > 1 | 0.981 | > 5.12 | 0.834 | 7.57 | 0.961 | > 20 |  | 
RCH-ACV (B-cell leukaemia, suspension) |  |  |  |  |  |  | 0.977 | > 1 | 0.956 | > 1 |  |  | 0.984 | > 10 |  |  | 0.954 | > 10
NCI-H1341 (small cell lung carcinoma, suspension) |  |  |  |  |  |  | 0.989 | > 1 | 0.538 | 0.0781 |  |  | 0.983 | > 10 |  |  | 0.827 | 4.93
CL-40 (large intestine, adherent) |  |  |  |  |  |  | 0.951 | > 1 | 0.638 | 0.194 |  |  | 0.966 | > 10 |  |  | 0.97 | > 10
NCI-H835 (lung carcinoid, suspension) |  |  |  |  |  |  | 0.983 | > 1 | 0.949 | > 1 |  |  | 0.986 | > 10 |  |  | 0.985 | > 10
COR-L321 (lung, suspension) | 0.9 | > 10.2 |  |  | 0.507 | 1.31 | 0.988 | > 1 | 0.977 | > 1 | 0.956 | > 5.12 | 0.938 | > 10 | 0.964 | > 20 | 0.964 | > 10
MV-4-11 (leukaemia, suspension) |  |  | 0.513 | 270 | 0.083 | < 0.0781 | 0.983 | > 1 | 0.61 | 0.118 |  |  | 0.859 | 6.03 | 0.815 | 8.62 | 0.699 | 2.01
JHOS-4 (ovary, adherent) |  |  |  |  |  |  | 0.976 | > 1 | 0.979 | > 1 |  |  | 0.98 | > 10 |  |  | 0.919 | > 10
